This note sets out measurements from article PMC4336329 (PLoS ONE, 2015).

About 2,200 (0.71%) of roughly 310,000 compounds showed an effect of 50% or more. The effect is printed as a negative number. The list shows a part of the results.

The target in the assay is human ether-à-go-go-related gene (hERG) potassium channel (human, UniProt Q12809). The assay can be described thus: primary screen, population patch clamp on CHO cells stably expressing hERG.
Chain of human ether-à-go-go-related gene (hERG) potassium channel (Q12809 whole entry, looked up): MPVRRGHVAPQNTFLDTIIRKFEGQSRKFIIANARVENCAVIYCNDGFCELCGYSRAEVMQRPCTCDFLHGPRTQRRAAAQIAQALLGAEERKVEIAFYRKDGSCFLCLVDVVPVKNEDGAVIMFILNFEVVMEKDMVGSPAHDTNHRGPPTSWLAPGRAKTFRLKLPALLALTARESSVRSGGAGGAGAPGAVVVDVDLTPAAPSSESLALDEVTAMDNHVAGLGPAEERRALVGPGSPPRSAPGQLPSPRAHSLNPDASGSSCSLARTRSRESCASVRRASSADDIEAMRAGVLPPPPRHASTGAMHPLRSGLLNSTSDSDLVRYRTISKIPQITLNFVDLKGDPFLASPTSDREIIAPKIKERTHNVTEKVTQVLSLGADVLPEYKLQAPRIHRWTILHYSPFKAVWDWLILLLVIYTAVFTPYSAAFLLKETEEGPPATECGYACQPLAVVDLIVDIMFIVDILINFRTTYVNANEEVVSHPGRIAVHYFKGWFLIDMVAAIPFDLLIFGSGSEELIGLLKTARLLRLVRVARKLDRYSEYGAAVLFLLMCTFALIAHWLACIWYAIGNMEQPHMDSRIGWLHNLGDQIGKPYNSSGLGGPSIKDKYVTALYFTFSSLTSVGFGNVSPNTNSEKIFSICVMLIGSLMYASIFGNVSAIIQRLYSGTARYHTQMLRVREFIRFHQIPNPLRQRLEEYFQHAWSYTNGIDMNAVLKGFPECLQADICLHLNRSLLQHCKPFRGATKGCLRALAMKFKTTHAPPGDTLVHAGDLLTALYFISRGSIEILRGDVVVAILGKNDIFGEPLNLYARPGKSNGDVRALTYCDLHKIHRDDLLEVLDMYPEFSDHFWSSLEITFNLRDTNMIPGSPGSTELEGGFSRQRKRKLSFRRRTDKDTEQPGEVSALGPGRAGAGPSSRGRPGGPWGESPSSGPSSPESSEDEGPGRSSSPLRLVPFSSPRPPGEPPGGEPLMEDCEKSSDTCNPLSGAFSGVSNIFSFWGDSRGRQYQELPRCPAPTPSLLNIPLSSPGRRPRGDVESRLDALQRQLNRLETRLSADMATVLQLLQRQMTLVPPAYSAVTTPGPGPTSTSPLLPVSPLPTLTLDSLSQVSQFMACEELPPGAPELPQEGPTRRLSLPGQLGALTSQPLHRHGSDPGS
Turning to `Cn1c(=O)c2c(nc(N3CCN(Cc4ccccc4)CC3)n2CC(=O)c2ccccc2)n(C)c1=O`, the “hERG current change (%, negative = inhibition) at 1uM” value was found to be 0.691%.
On to `COc1cccc(C2=N/C(=C\N(C)C)C(=O)O2)c1`, for which the “hERG current change (%, negative = inhibition) at 1uM” value is on record as 9.83%.
The value for `CC(C)CN(CCCNC(=O)CN1C(=O)COc2ccc(S(=O)(=O)N3CCOCC3)cc21)CC(C)C` was 20.2%; that for `Cc1cccc(NC(=O)CSc2nnnn2-c2cccnc2)c1` was 1.51%.
For `CCN1CCN(C(c2ccc(C(F)(F)F)cc2)c2ccc3cccnc3c2O)CC1` (stereo not drawn), the “hERG current change (%, negative = inhibition) at 1uM” value was -1.02%.
The value for `O=C(Nc1ccc(F)cc1)c1ccccc1` was 4.8%.
Consider `Cc1c(-n2c(O)c(C3=c4ccccc4=NC3=O)sc2=O)c(=O)n(-c2ccccc2)n1C`, for which the “hERG current change (%, negative = inhibition) at 1uM” value worked out at 1.17%.
Take `Cc1ccc(CN(C(=O)COc2ccc(C)c(C)c2)C2CCS(=O)(=O)C2)o1` (stereo not drawn): the “hERG current change (%, negative = inhibition) at 1uM” value is 0.459%.
The figure for `CCNc1nc(NCC)nc(N(CC)C(N)=S)n1` is 6.9%.
The value for `Cc1ccc(S(=O)(=O)NCC(=O)OCC(=O)Nc2cccc(S(=O)(=O)NC3=NCCCCC3)c2)cc1` was 11.9%; that for `COCCNC(=O)c1ccc(C2SCC(=O)N2Cc2ccco2)cc1` (stereo not drawn) was 10.2%; that for `Cc1oc(-c2ccc(Cl)cc2)cc1C(=O)NC1CCN(Cc2ccccc2)CC1` was 9.73%.
The figure for `Cc1cc(C(=O)Nc2cccc3ccccc23)c(C)o1` is 8.64%; for `CNC(=S)N/N=C1\CC(c2ccccc2)Oc2ccccc21` (stereo not drawn) it is 17.9%; for `O=C(CSc1cn(CCNC(=O)c2cccs2)c2ccccc12)NCC1CCCO1` (stereo not drawn) it is -1.71%.
As for `CC(=O)OC(C(=O)NC1CCCCC1)c1cccc(F)c1` (stereo not drawn), the “hERG current change (%, negative = inhibition) at 1uM” value is recorded as 10.4%.
As to `Cc1nc2ccccc2n1-c1ccccc1`, the “hERG current change (%, negative = inhibition) at 1uM” value was 4.78%.
The figure for `CC1(CCC#N)N=C(SCCC#N)N(c2ccccc2)C1=O` (stereo not drawn) is 6.38%; for `C=CCn1c(SCC(=O)Nc2cccnc2Cl)nnc1-c1ccccc1F` it is 10.6%; for `CCCn1c(C(C)Nc2nc(-c3ccc(OC)cc3)cs2)nc2ccccc21` (stereo not drawn) it is 14%.
Take `CCc1ccc(OCC(=O)Nc2ncn[nH]2)cc1`: the “hERG current change (%, negative = inhibition) at 1uM” value was found to be 8.98%.
The value for `CN1CCN(c2ccccc2NC(=O)c2cccc(OCc3ccccc3)c2)CC1` was -41.6%.
The value for `C/C(=N\O)C(=O)NCc1ccccn1` was 6.07%.
The value for `COc1ccc(OC)c(-c2nc(CN3CCN(C(=O)c4ccco4)CC3)c(C)o2)c1` was 8.33%.
For the compound `CC(NS(=O)(=O)c1ccc(Cl)cc1)C(=O)N1CCOCC1` (stereo not drawn), the “hERG current change (%, negative = inhibition) at 1uM” value was -0.146%.
The figure for `O=C(NC1CCN(S(=O)(=O)c2ccccc2)CC1)c1ccccc1` is 13.1%; for `CCOC(=O)NNc1cc(C(F)(F)F)ccn1` it is 9.92%.
Regarding `O=C(NCc1ccccc1)C(=O)NCC1CCCN1S(=O)(=O)c1cccs1` (stereo not drawn), the “hERG current change (%, negative = inhibition) at 1uM” value turned out to be 7.6%.
Turning to `COCC(=O)Nc1ccc(S(=O)(=O)Nc2cc(C)nc(C)n2)cc1`, the “hERG current change (%, negative = inhibition) at 1uM” value was 5.11%.
The figure for `COc1ccc(CCNC(=O)c2cc(-c3ccccc3)on2)cc1OC` is 10.7%.
The figure for `COc1cccc2cc(C(=O)N3CCc4ccccc43)c(=O)oc12` is 12.9%.
The value for `C/C(=N\NC(=O)Cc1cccn1C)c1ccc([N+](=O)[O-])cc1` was 5.66%; that for `O=C(NCCCN1CCOCC1)c1cccc(S(=O)(=O)Nc2ccccc2Cl)c1` was 2.65%.
With `O=C(CN1C(=O)S/C(=C\c2cccs2)C1=O)Nc1ccc(O)cc1C(=O)O`, the “hERG current change (%, negative = inhibition) at 1uM” value is on record as 8.16%.
The figure for `O=C(Nc1ccccc1)c1cnc(-c2ccccc2)nc1-c1ccccc1` is 2.1%; for `COC(=O)c1ccc(COc2ccccc2[N+](=O)[O-])o1` it is 9.73%.
The figure for `O=C(COc1ccc(Br)cc1)N1CCCCCC1` is -7.76%; for `C=CCn1c(N2CCCC2)nc2c1c(=O)[nH]c(=O)n2C` it is 11.1%.
The figure for `CC1=C(C(=O)Nc2ccc(F)cc2)C(c2ccc(C)o2)C2=C(CC(C)(C)CC2=O)N1` (stereo not drawn) is 2.12%.
On to `NS(=O)(=O)c1ccc(NN=C2CCN(Cc3ccccc3)CC2)c([N+](=O)[O-])c1`, for which the “hERG current change (%, negative = inhibition) at 1uM” value is on record as 6.82%.
Take `COc1ccc(C(=O)OCC(=O)Nc2sccc2C(N)=O)cc1[N+](=O)[O-]`: the “hERG current change (%, negative = inhibition) at 1uM” value came to 4.86%.
Regarding `O=C(Nc1ccc2c(c1)OCCO2)c1ccc2ccccc2n1`, the “hERG current change (%, negative = inhibition) at 1uM” value is -0.879%.
The value for `COc1ccccc1N1CCN(CC(=O)Nc2ccccc2C(=O)NC(C)c2ccccc2)CC1` (stereo not drawn) was 9.04%.
The figure for `Cc1ccc(C(=O)NCCSc2ccccc2)cc1S(=O)(=O)Nc1ccccc1` is -5.15%.
`Cc1ccc(N(CC(=O)NCC2CCCO2)C(=O)CNS(=O)(=O)c2ccc(Cl)cc2)cc1` (stereo not drawn): the “hERG current change (%, negative = inhibition) at 1uM” value was 6.77%.
The figure for `CCOC(=O)c1nc2nc(C)c(Cl)c(=O)n2[nH]1` is 9.83%; for `CCOCCCN=Cc1c(O)n(Cc2ccccc2)c(=O)[nH]c1=O` it is 2.78%.
The value for `CCOCCOc1cccc(C(=O)NC(C)c2ccc3ccccc3c2)c1` (stereo not drawn) was 13.2%; that for `CN1CCN(C(=O)CN(C)S(=O)(=O)c2cc(Cl)ccc2Cl)CC1` was 13.9%; that for `CC(=O)NC(c1cc(Cl)c2ccccc2c1O)C(C)C` (stereo not drawn) was 7.21%.
As for `Cc1ccccc1-n1ccnc1SCC(=O)NC1CCCC1`, the “hERG current change (%, negative = inhibition) at 1uM” value worked out at 9.39%.
The figure for `C=CCN1CN(S(=O)(=O)c2cccs2)c2nc3ccccc3nc21` is 7.98%.
The figure for `O=C(CCCOc1ccccc1)N1CCN(S(=O)(=O)c2ccccc2)CC1` is 8.22%.
Take `O=C(CSC(=S)N1CCCC1)NCC(=O)Nc1ccc(F)c(F)c1`: the “hERG current change (%, negative = inhibition) at 1uM” value stood at 6.02%.
The figure for `CC1CN(c2nc3ccccc3nc2C(C#N)C(=O)NC2CCCCC2)CC(C)O1` (stereo not drawn) is 12.6%; for `CC(C)(CN1CCN(Cc2ccccc2)CC1)NS(=O)(=O)c1ccccc1` it is -13.7%.
The value for `O=C(CNC(=O)C1COc2ccccc2O1)N/N=C\c1ccccc1Cl` (stereo not drawn) was 8.04%; that for `S=C(Nc1ccc(Cl)c(Cl)c1)NN1CCOCC1` was 7.79%; that for `Cc1ccc(C)c(S(=O)(=O)Nc2ccc(C(=O)NCCc3ccccn3)cc2)c1` was 7.74%.
The value for `Cc1cc(C)c2c(c1)/C(=N/NC(=O)c1ccc(O)cc1)CCC2` was 7.8%; that for `COC(=O)CNC(=S)NC(=O)c1ccc(C(C)(C)C)cc1` was 10.6%.
`Cc1ccc(Cl)cc1NC(=O)CN1CCN(S(=O)(=O)N2CCOCC2)CC1`: the “hERG current change (%, negative = inhibition) at 1uM” value is listed as -31.6%.
The figure for `N#CCSc1nc(-c2ccccc2)cs1` is 8.02%; for `CCc1ccc(-c2ccc(C(=O)C(F)(F)F)[nH]2)cc1` it is 5.63%.
The value for `CCCCc1nc2sc3c(=O)n(N)cnc3c2c2c1CCCC2` was 20.8%; that for `COc1ccc(C2=C(C)CC(C)(C)NC2=O)cc1OC` was 12.7%; that for `O=C1c2nccnc2C(=O)N1c1ccc(F)cc1` was 7.28%.
The value for `Cc1cc(C)c(C#N)c(SCc2cc3c(cc2Cl)OCO3)n1` was 9.29%; that for `CCOC(=O)c1[nH]c2ccccc2c1NC(=O)c1cc(OC)c(OC)c(OC)c1` was 4.56%.
Regarding `COc1ccc(NC(=O)c2cc(-c3cc(C)ccc3O)n[nH]2)cc1Cl`, the “hERG current change (%, negative = inhibition) at 1uM” value came out at 3.07%.
`COc1ccc(CCN2C(=NC(=O)C(C)C)SC3CS(=O)(=O)CC32)cc1OC` (stereo not drawn): the “hERG current change (%, negative = inhibition) at 1uM” value turned out to be 10.6%.
Regarding `CCOc1cc2[nH]c(=O)n(CCc3ccc(OC)c(OC)c3)c(=O)c2cc1OCC`, the “hERG current change (%, negative = inhibition) at 1uM” value is reported as 17.6%.
The figure for `O=c1cc(N=Nc2ccc(Cl)cc2)[nH]c(=O)[nH]1` is 6.32%; for `Cc1cnn2c(C3CC3)ccnc12` it is 8.17%; for `COc1cccc(CNC(=O)Cn2nc(-c3ccc(Cl)cc3)ccc2=O)c1` it is -7.66%.
The value for `Cc1cc(C(=O)COC(=O)CC2Sc3ccccc3NC2=O)c(C)n1-c1ccccc1` (stereo not drawn) was 17.8%; that for `O=C/C(=C\Nc1ccc(S(=O)(=O)CCO)cc1)c1nc2cc(Cl)ccc2o1` was 2.58%; that for `Nc1cc(C(F)(F)F)cc([N+](=O)[O-])c1N` was 6.48%.
Consider `COC(=O)c1ccc(Cn2nnc3c(=O)[nH]c(C4CCN(S(=O)(=O)c5ccc(F)cc5)CC4)nc32)cc1`, for which the “hERG current change (%, negative = inhibition) at 1uM” value amounted to 8.63%.
The figure for `Cc1ccc(-n2nc3ccc(N)cc3n2)cc1Cl` is 14%.
The figure for `Cc1ccc(NC2=C(NCCO)C(=O)c3ccccc3C2=O)cc1` is 3.27%; for `O=C(C1CCC1)N1CCN(c2ccccc2)CC1` it is 14.2%; for `CC(=O)c1ccc(N(C(=O)CS(=O)CC(=O)Nc2ccc(F)cc2)C(C(=O)NC2CCCCC2)c2cccs2)cc1` (stereo not drawn) it is 15.3%.
For `CSc1ccc(/C=C/C(=O)OCC(=O)NCC2CCCO2)cc1` (stereo not drawn), the “hERG current change (%, negative = inhibition) at 1uM” value stood at 12.2%.
The figure for `CC1CC(C)CN(CCCNC(=O)C2CCN(c3ncnc4c3sc3cccc(F)c34)CC2)C1` (stereo not drawn) is -14.9%; for `NS(=O)(=O)c1ccc(NC(=O)COC(=O)CCc2c[nH]c3ccccc23)cc1` it is 18.5%; for `CCCOC(=O)c1ccc(-[n+]2c(-c3ccccc3)cc(-c3ccccc3)cc2-c2ccccc2)cc1.[O-][Cl+3]([O-])([O-])[O-]` it is -12.4%.
The figure for `CCCCCCNC(=O)CCNS(=O)(=O)c1ccc(C)cc1` is 9.15%; for `Cn1c(C=O)c(C#Cc2ccccc2)c2ccccc21` it is 8.72%; for `O=C(CN1C(=O)/C(=C/c2cccc(Cl)c2)SC1=S)NC1C=CS(=O)(=O)C1` (stereo not drawn) it is 12.8%.
